The chains are these.
B1: CPEB3 Ribozyme (parent)
chain: UAACAGGGGGCCACAGCAGAAGCGUUCACGUCGCAGCCCCUGUCAGAUUCUGGUGAAUCUGCGAAUUCUGCUGUAUAUCUC

These results are taken from the RNAGym collection of RNA variant scans (doi:10.1093/nar/gkz1192).

The source gives no read counts; variants with many changes may rest on few reads.

In this data set the parent is B1. Put plainly: self-cleavage, relative activity (ratio to wild type); higher = more cleavage; in vitro, sequencing. In short, it runs like this: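 Libraries of CPEB3 self-cleaving ribozyme mutants came from rounds of error-prone PCR and carried barcodes, which DNA sequencing matched to variants. In vitro transcription used T7 RNA polymerase at 37°C for 5 hours, with a further 15 min in DNase I before EDTA stopped the reaction; the ribozymes cleaved during both steps. The RNA was reverse transcribed with template switching and sequenced on Illumina. Relative activity is the cleaved/total read fraction of a variant divided by that of the unmutated ribozyme, averaged over three batches with at least 5 reads.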
Regarding A3G A56G C62U U66C U69A U72C, the self-cleavage was 0.4.

For the variant A3G A13U G19A A45G A47U, the self-cleavage was 0.39.

Take A3G A47G U58C A64U: the self-cleavage came to 0.48.

In the case of A3G A35U C40U G46A, the self-cleavage worked out at 0.04.

For A3G A18G A65U U72C U76C, the self-cleavage came to 0.38.

In the case of A3G A18G U26A U51C, the self-cleavage was 0.47.

Turning to A3G A18G U74C, the self-cleavage turned out to be 0.86.

With A3G A45U U49A U51C, the self-cleavage turned out to be 0.14.

As to A3G A15G G19U U58C, the self-cleavage was determined as 0.25.

A3G A18G U25C U31C G33A U48C: the self-cleavage was 0.09.

Turning to A3G A13U A56G, the self-cleavage amounted to 0.89.

Regarding A3G A21U A35G A45G U51G, the self-cleavage turned out to be 1.15.

Turning to A3G A13U A18G A20G U26C, the self-cleavage turned out to be 0.69.

Consider A3G A28U C44U U66A, for which the self-cleavage turned out to be 0.21.

For the variant A3G A21G A35U, the self-cleavage worked out at 0.42.

For the variant A3G A35G U41C U43C, the self-cleavage was determined as 0.98.

Turning to A3G A18G U43C U67A, the self-cleavage was found to be 0.3.

For A3G A45G U49C, the self-cleavage came out at 0.4.

For A3G A18G A56U U72A, the self-cleavage was found to be 0.2.

Regarding A3G A18G A47G, the self-cleavage worked out at 0.85.

On to A3G A56G A64C, for which the self-cleavage was 0.32.

As for A3G A13G G61U, the self-cleavage worked out at 0.52.

A3G A15U A20C: the self-cleavage was 0.11.

For A3G A15C A35G G63A, the self-cleavage is 1.07.

Regarding A3G A13G G16C C32U C34U U51C U69A, the self-cleavage was 0.07.

A3G A21G A65U U67C: the self-cleavage worked out at 0.26.

Take A3G C4G A15U U26C G36A U54C U60C: the self-cleavage worked out at 0.3.

A3G A15C G16A A57G: the self-cleavage worked out at 0.27.

Consider A3G A18C C27A, for which the self-cleavage turned out to be 0.39.

With A3G A13U U58C U67C U78C, the self-cleavage stood at 0.23.

On to A3G A13U G52U, for which the self-cleavage amounted to 1.14.

Take A3G A13U A21G G30A A47U: the self-cleavage was 0.01.

Consider A3G A15C G70A, for which the self-cleavage amounted to 0.22.

With A3G A35U U74A, the self-cleavage was 1.05.

Consider A3G A18G G73A, for which the self-cleavage came to 0.81.

As for A3G A45G U54A, the self-cleavage came out at 0.87.

On to A3G A28G U58G U78C, for which the self-cleavage is 0.35.

In the case of A3G A20G C23U U31C U54C, the self-cleavage was 0.34.

Take A3G A13G U25C: the self-cleavage was 0.68.

Turning to A3G A13U A20G C40U A65U, the self-cleavage turned out to be 0.09.

For the variant A3G A13U G16U C34U G73A, the self-cleavage stood at 0.09.

As to A3G A21C U31C C32U U48C, the self-cleavage was 0.11.

On to A3G A18G U51A G52U, for which the self-cleavage was determined as 0.94.

Take A3G A21G A77G U78C: the self-cleavage was found to be 0.35.

Take A3G A45U G53C: the self-cleavage was determined as 0.6.

A3G A57U A65G U76C: the self-cleavage came out at 0.12.

For the variant A3G A13G U43A U78C, the self-cleavage came out at 1.03.

For the variant A3G A45G U48C, the self-cleavage stood at 0.19.

Regarding A3G A20C U41A A64G U67A, the self-cleavage stood at 0.21.

With A3G A35U A45C U69A A75U U80C, the self-cleavage came to 0.11.

For A3G A21G U67C U69C, the self-cleavage was found to be 0.29.

A3G A47G U49C: the self-cleavage was 0.37.

Turning to A3G A15G U25C A28G U49A U60C U72A, the self-cleavage was 0.27.

A3G A20U U31G A65G U69C A77U: the self-cleavage came to 0.08.

As for A3G A18U A35U U41A A75G, the self-cleavage came to 0.32.

Consider A3G A15G G30A G46U A64C U66C, for which the self-cleavage is 0.08.

Take A3G A15U C37A U41C A56C A64U U72A: the self-cleavage is 0.08.

In the case of A3G A15G U41A C44A U72A A77G, the self-cleavage is 0.19.

On to A3G A35G U41A A45U A65G, for which the self-cleavage came to 0.19.

On to A3G A47U U72C U76C, for which the self-cleavage was found to be 0.33.

As for A3G A20G A28U U48A U60A, the self-cleavage is 0.21.

Take A3G A45G A56U A57G U67C: the self-cleavage stood at 0.23.

For the variant A3G A28C U31C U66C, the self-cleavage was 0.48.

For A3G A13U U26C A45U U80A, the self-cleavage was determined as 0.21.

For the variant A3G A15U A56G, the self-cleavage was determined as 0.47.

Take A3G A18G A65U U80C: the self-cleavage was 0.36.

A3G A18U A45G A64G U67C C81A: the self-cleavage came out at 0.35.

With A3G C4G U31C A45G A64G, the self-cleavage was found to be 0.3.

Consider A3G A18U G30U A35G C62U U72A, for which the self-cleavage was 0.12.

As to A3G A18G A28U A35G, the self-cleavage was found to be 0.66.

As for A3G A13G U72A, the self-cleavage worked out at 0.57.

For A3G A21G C29U U54C G73U, the self-cleavage came out at 0.5.

Take A3G A20U U25A U60C: the self-cleavage turned out to be 0.11.

Consider A3G A28U U41A U43A C62U, for which the self-cleavage worked out at 0.15.

On to A3G A28G G55C U69C, for which the self-cleavage stood at 0.13.

On to A3G A56C A65G, for which the self-cleavage came to 0.26.

As for A3G A20G A21G U72C, the self-cleavage came out at 0.15.

A3G A13U C32U A56U U80C: the self-cleavage is 0.06.

As for A3G A20G U31C A35G U67C, the self-cleavage was 0.77.

Regarding A3G A21C U48C, the self-cleavage came to 0.6.

Take A3G A20G U49C U69A: the self-cleavage is 0.21.

In the case of A3G A35U U60A U67C, the self-cleavage amounted to 0.17.

Regarding A3G A28G U67C, the self-cleavage turned out to be 0.24.

For the variant A3G A20G U72A, the self-cleavage was 0.42.
